# The inconclusive results got no clear call from the source; some entries with a clear call stand among them for comparison. No potency is given beside an inconclusive call; the fits are too rough. Activity calls are given as the source filed them. The call rests on the fitted dose curve; in most records, active means well fitted inhibition curve with a large enough effect; inconclusive means small, poorly fitted or top-dose-only effect; inactive means no such curve, though single readings can be large or run the other way.
# What was measured:
# [1] = target: Rap guanine nucleotide exchange factor 3 (Homo sapiens) (UniProt O95398); test: Confirmatory qHTS for antagonist of cAMP-regulated guanine nucleotide exchange factor 3 (EPAC1) (AID 1645880); conditions: EPAC1 Rap1B-BODIPY-GDP exchange, fluorescence; series mostly up to 115 µM; further: nearly all actives have a fitted effect of over 55% in size
# Chain of UniProt O95398 (O95398 whole entry, looked up): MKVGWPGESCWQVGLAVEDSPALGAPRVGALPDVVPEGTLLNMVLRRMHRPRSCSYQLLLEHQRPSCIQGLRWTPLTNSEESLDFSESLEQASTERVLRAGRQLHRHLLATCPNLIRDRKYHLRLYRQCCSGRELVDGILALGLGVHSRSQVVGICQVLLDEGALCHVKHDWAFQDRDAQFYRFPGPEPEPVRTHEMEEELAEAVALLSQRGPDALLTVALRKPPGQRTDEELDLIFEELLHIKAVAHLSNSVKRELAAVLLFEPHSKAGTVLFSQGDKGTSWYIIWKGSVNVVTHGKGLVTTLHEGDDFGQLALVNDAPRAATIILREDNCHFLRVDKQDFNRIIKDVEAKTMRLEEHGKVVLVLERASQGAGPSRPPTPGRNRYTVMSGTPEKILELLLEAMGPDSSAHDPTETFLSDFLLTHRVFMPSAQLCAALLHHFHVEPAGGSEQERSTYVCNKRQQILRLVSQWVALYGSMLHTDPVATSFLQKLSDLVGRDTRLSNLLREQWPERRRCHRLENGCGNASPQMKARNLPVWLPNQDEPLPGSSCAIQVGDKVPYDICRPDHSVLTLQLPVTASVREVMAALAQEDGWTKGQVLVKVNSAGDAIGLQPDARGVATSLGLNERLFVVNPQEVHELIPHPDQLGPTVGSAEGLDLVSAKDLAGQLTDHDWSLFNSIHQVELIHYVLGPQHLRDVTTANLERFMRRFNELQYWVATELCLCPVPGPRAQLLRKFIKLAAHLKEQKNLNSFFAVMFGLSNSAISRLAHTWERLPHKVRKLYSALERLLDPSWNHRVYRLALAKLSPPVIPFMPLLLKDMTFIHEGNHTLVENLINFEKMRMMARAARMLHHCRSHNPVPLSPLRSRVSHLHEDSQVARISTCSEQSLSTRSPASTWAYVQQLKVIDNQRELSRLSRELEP
# How it was run: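 Nucleotide exchange uses 100 nM EPAC1, 250 nM RAP1B-BODIPY-GDP and 50 uM GDP, with compounds in a concentration-titration series. After 5 min at room temperature, fluorescence (480 nm ex/540 nm em) is read every 5 min for 30 min. Data are normalized to control ATA and DMSO.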
# [2] = target: Rap guanine nucleotide exchange factor 4 (Homo sapiens) (UniProt Q8WZA2); test: Confirmatory qHTS for antagonist of cAMP-regulated guanine nucleotide exchange factor 4 (EPAC2) (AID 1645885); conditions: EPAC2 Rap1B-BODIPY-GDP exchange fluorescence, biochemical; series mostly up to 114 µM; further: nearly all actives have a fitted effect of over 25% in size
# Chain of UniProt Q8WZA2 (Q8WZA2 whole entry, looked up): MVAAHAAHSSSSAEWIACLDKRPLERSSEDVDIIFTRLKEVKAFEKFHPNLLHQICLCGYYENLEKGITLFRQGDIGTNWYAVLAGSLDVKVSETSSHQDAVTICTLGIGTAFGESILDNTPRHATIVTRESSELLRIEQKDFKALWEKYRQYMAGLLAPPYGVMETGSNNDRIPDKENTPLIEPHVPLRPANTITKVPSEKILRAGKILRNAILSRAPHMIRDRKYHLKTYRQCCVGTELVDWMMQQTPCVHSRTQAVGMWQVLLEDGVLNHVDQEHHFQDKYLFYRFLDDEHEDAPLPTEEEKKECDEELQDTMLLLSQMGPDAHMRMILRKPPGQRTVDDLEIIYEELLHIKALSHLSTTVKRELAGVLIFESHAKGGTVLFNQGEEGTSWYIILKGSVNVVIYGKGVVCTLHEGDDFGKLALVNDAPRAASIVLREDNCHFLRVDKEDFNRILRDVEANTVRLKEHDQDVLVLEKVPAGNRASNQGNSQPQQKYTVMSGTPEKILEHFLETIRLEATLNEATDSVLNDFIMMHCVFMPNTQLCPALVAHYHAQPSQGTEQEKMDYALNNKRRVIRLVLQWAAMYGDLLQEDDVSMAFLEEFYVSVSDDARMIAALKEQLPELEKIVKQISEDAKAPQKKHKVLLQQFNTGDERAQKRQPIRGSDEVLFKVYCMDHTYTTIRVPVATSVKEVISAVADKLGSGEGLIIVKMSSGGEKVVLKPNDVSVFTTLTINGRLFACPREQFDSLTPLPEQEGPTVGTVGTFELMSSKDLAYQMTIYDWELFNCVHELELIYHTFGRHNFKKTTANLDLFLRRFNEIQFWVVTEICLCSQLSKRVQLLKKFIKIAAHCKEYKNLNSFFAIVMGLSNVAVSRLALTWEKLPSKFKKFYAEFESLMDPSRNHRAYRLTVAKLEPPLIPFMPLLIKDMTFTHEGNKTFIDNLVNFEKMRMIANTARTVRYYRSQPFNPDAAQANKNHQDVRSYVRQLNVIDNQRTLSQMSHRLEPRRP
# Potency means the concentration at half of the fitted maximal effect; tags describe the fitted curve by direction and shape.
SMILES,Potency [1],Potency [2]
O=C(CSc1nnc(-c2ccco2)c(-c2ccco2)n1)c1ccccc1,"inconclusive [inhibitor, full curve]","inconclusive [inhibitor, single point]"
CCN(CC)CCN(C(=O)c1cc2ccccc2cc1OC)c1nc2ccc(F)cc2s1,inactive,"inconclusive [inhibitor, single point]"
C=C1CCC(O)C/C1=C\C=C1/CCCC2(C)C1CCC2C(C)CCCC(C)C (stereo not drawn),active: 55.9 µM,active: 39.3 µM
CC(C)(C)N1CC(c2nc3ccccc3n2CCOc2ccccc2)CC1=O (stereo not drawn),"inconclusive [inhibitor, partial curve, poor fit]",inactive
Cc1ccc(Cc2c(-c3cccc(Cl)c3)nc3ccc(Br)cn23)cc1,active: 75.7 µM,"inconclusive [inhibitor, partial curve]"
CCN(CC)S(=O)(=O)c1ccc2[nH]c(=O)cc(C(=O)Nc3ccc(C)c(S(=O)(=O)N(CC)CC)c3)c2c1,"inconclusive [inhibitor, partial curve]","inconclusive [inhibitor, partial curve, poor fit]"
CC(=O)NC(C)c1nc2ccccc2n1Cc1ccccc1Cl (stereo not drawn),inactive,inactive
Cc1cc(C)c(S(=O)(=O)c2ccccc2C)c(SCC(C)C)n1,inactive,"inconclusive [inhibitor, partial curve]"
CCOC(=O)C1CCCN(C(=O)C2(c3ccc(Cl)cc3)CCCC2)CC1 (stereo not drawn),inactive,inactive

# From PubChem BioAssay (NCATS)
